Read-outs that look alike come from different tables or passages of the source.

For one experiment, the system named is 95D (Met). Nature of the experiment: Crystal Violet cell proliferation assay, 95D. The experiment is classed as cell-based, human. As to conditions: single agent, 72 h, mean ± SEM.
A further experiment concerns H1975. Nature of the experiment: Crystal Violet cell proliferation assay, H1975. As to conditions: Homo sapiens, NCI-H1975, 72 h, read-out: IC50 H1975 Mean (95% CI), drug alone, 72 h.
A further experiment concerns H446. Nature of the experiment: Crystal Violet cell proliferation assay, H446. It counts as cell-based, human. As to conditions: single agent, 72 h, mean ± SEM, read-out: IC50 SCLC H446.
Experiment [1] has as its system A549/DDP (Cisplatin Resistant). In words: Crystal Violet cell proliferation assay, A549/DDP. As to conditions: Homo sapiens, A549/DDP, 72 h, read-out: IC50 A549/DDP (Cisplatin Resistant), single agent, 72 h, mean ± SEM.
A further experiment has as its system YTMLC. Nature of the experiment: Crystal Violet cell proliferation assay, YTMLC. It counts as cell-based, human. As to conditions: single agent, 72 h, mean ± SEM.
A further experiment has as its system 95C (Non-Met). Nature of the experiment: Crystal Violet cell proliferation assay, 95C. It counts as cell-based, human. As to conditions: Homo sapiens; single agent, 72 h, mean ± SEM.
The subject of another experiment is A549 parental. Nature of the experiment: Crystal Violet cell proliferation assay, A549. As to conditions: Homo sapiens, A549, 72 h, read-out: IC50 A549 parental, single agent, 72 h, mean ± SEM.

Regarding `N.N.[Cl][Pt][Cl]` [CIS, Cisplatin], the IC50 in the experiment on 95D (Met) was > 100 µM.
With `C#Cc1cccc(Nc2ncnc3cc4c(cc23)OCCOCCOCCO4)c1` [Icotinib], the IC50 with H1975 came to 4.8 µM.
Consider `CCC(C)(C)C(=O)O[C@H]1C[C@@H](C)C=C2C=C[C@H](C)[C@H](CC[C@@H]3C[C@@H](O)CC(=O)O3)[C@H]21` [SIM, Simvastatin], for which the IC50 with H446 (Homo sapiens, NCI-H446) came out at 4.3 ± 1.3 µM; in the experiment with 95D (Met) (Homo sapiens), 1.7 ± 1 µM; in experiment [1], 5.3 ± 1.1 µM; in the experiment on YTMLC (Homo sapiens), 10.6 ± 1 µM; in the experiment with 95C (Non-Met), 2 ± 1.2 µM; in the experiment on A549 parental, 4.2 ± 1.2 µM.
Turning to DZ1-Cisplatin ester, the IC50 with H446 was found to be 23.4 ± 1 µM; in the experiment with YTMLC, 2.2 ± 1 µM.

(Values after US20240261263A1, “COMPOUNDS AND METHODS TO SENSITIZE CANCER CELLS TO TYROSINE KINASE INHIBITORS” (Da Zen Theranostics, Inc., priority 2016, published 2024).)
